# Laboratory results reported in the RNAGym collection of RNA variant scans (doi:10.1093/nar/gkz1192).
# Read counts are not given, so values of variants with three or more changes are uncertain.
# B1: CPEB3 Ribozyme (parent)
# chain: UAACAGGGGGCCACAGCAGAAGCGUUCACGUCGCAGCCCCUGUCAGAUUCUGGUGAAUCUGCGAAUUCUGCUGUAUAUCUC
# Variants of: B1
# Assay: self-cleavage, relative activity (ratio to wild type); higher = more cleavage; in vitro, sequencing
# Summary of the method: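 For each CPEB3 ribozyme variant, relative activity is its cleaved/total read fraction divided by the unmutated ribozyme's. Barcoded error-prone PCR libraries were transcribed by T7 RNA polymerase (5 hours, 37°C) and held in DNase I for 15 min before an EDTA stop, with cleavage occurring throughout. Template-switching reverse transcription and Illumina sequencing were used to read the RNAs. A 5-read minimum applied, and results are the mean of three batches.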
row,Variant,self-cleavage
1,UAACAGGGGGCCACAGCAGAAGCGUUCACGUUGCAGUCCCUGUCAGAUUCUAGCGAAUCUGCGAAUUCUGCUGUAUCUCUC,0.09
2,UAACAGGGGGCCACAGCAGAAGCGUUCACGUAGCAGCCCCUGUCAGACUCUGGUGAAUCUGCGAAUUGUGCUGUAAAUCUC,0.04
3,UAACAGGGGGCCACAGCAGAAGCGUUCACGUUGCAGCCCCCGUCAGAUUCUGGUGAAUCUGCGAAUUCUGCUGUAUUUCCC,0.3
4,UAACAGGGGGCCACAGCAGAAGCGUUCACGUCACUGCCCCUAUCAGAUUCUGGUGAAUCUGCGUAUUCUGCUGUAUAUCUC,0.14
5,UAACAGGGGGCCACAGCAGAAGCGUUCACGUGGCAGCCCCUGUCAGAUUCUGGUGAAUCUGCGGAUUCCGCUGCAUAUCUC,0.11
6,UAACAGGGGGCCACAGCAGAAGCGUUCACGUCACAGCCCCUGUCAGGUUCUGGUGAAUCUGCGAAUUCUGCCGUAUAUCUU,0.08
7,UAACAGGGGGCCACAGCAGAAGCGUUCACGUCACAGUCCCCGUCAGAUUCUGGUGAAUCUGCGAAUUCUGCUGUAUAUCUC,0.2
8,UAACAGGGGGCCACAGCAGAAGCGUUCACGUCACAGCACCUGUCAGAUUCUGGUGAAUCUGCGAAUACUGCUGUAUAUCAC,0.06
9,UAACAGGGGGCCACAGCAGAAGCGUUCACGUGGCAGCCCCAGUCAGAUUCUGGUGAACCUGCGAAUUCUGCUGUAUAUCUC,0.33
10,UAACAGGGGGCCACAGCAGAAGCGUUCACGUUGCAGCCCCUGUCAGAUUCUGGUGGAUCUGCGUAUUCUGCUGUAUAUCAC,0.1
11,UAACAGGGGGCCACAGCAGAAGCGUUCACGUAGCAGCCCCUGUCAGAUUCUGGUGAAACUGCAGAUUCCGCUGUAUAUCAC,0.14
12,UAACAGGGGGCCACAGCAGAAGCGUUCACGUCACAGCCCCUGUCAGGUUCCGGUGAAUCUGCGAAUUCUGCUGUAUAUCUC,0.2
13,UAACAGGGGGCCACAGCAGAAGCGUUCACGUUGCAGCCCCAGUCAGAUUCUGGUGUAUCUGCGAAUUCUGCUGUAUAUCUC,0.14
14,UAACAGGGGGCCACAGCAGAAGCGUUCACGUCACAGCCCCUGUCGGAUUCUGGUGUAUCUGCGAAUUCUGCUGUAUAUCUC,0.31
15,UAACAGGGGGCCACAGCAGAAGCGUUCACGUAGCAGCCCCUGUCAGAUUCUGGUGAAUCUGCGAAUUCUGCUGCAUACCUC,0.3
16,UAACAGGGGGCCACAGCAGAAGCGUUCACGUCACAGCCCCUGUCGGAUUCUGGUGAAUCUGCGAAUUCUGCCGUAUAUCUC,0.03
17,UAACAGGGGGCCACAGCAGAAGCGUUCACGUUGCAGCCCCCGUCAGAUCCUGGUGAAUCUGCGAAUUCUGCUGUAUGUCUC,0.08

row,Variant,self-cleavage
1,UAACAGGGGGCCACAGCAGAAGCGUUCACGUGGCAGCCCCUGUCUGAUCCCGGUGAAUCUGCGAAUUCUGCUGUAUAUCUC,0.18
2,UAACAGGGGGCCACAGCAGAAGCGUUCACGUUGCAGCCCCUGUCAGAUUCUGGCGAAUCAGAGAAUUCUGCUGUAUAUCUC,0.13
3,UAACAGGGGGCCACAGCAGAAGCGUUCACGUUGCAGCCCCUGUUAGAUUCUGGUGAAUCUGCGAAUUCUGCUGUUUAUCUC,0.11
4,UAACAGGGGGCCACAGCAGAAGCGUUCACGUCACAGCUCCUGUCAGAUUCUGGUGAAUCUGCGGAUUCUGCUGUAUAUCUC,0.08
5,UAACAGGGGGCCACAGCAGAAGCGUUCACGUCACAGCCCCUGUCGGAUUCUGGUGAAUCAACGAAUUCUGCUGUAAAUCUC,0.08
6,UAACAGGGGGCCACAGCAGAAGCGUUCACGUUGCGGACCCUGUCAGAUUCUGGUGAAUCUGCGAAUUCUGCUGUAUAUCUC,0.14
7,UAACAGGGGGCCACAGCAGAAGCGUUCACGUCACUGCACCUGUCAGAUUCUGGUGAAUCUGCGAAUUCUGCUGUAUAUCAC,0.13
8,UAACAGGGGGCCACAGCAGAAGCGUUCACGUUGCAGCCCGUGACAGAUUCUGGUGAGCCUGCGAAUUCUGCUGUAUAUCUC,0.11
9,UAACAGGGGGCCACAGCAGAAGCGUUCACGUUGCAGCCCCUGUCAGAUUCUGGUGAAUCAGCGAAUUCUGCUGUAUAUCCC,0.29
10,UAACAGGGGGCCACAGCAGAAGCGUUCACGUAGCAGCCCCUGCCAGAUUCUGGUGAAUCUGCGAACUCUGCUGCAUAUCUC,0.13
11,UAACAGGGGGCCACAGCAGAAGCGUUCACGUCACGGCCCCAGUCAGAUUCUGGUGAAUCUGCGAAUUCUGCUGUAUAUCUC,0.07
12,UAACAGGGGGCCACAGCAGAAGCGUUCACGUUGCAGCCCCUGUCAGAUUCUAGUGAAUCCGCGAAUUCUGCUGUAUAUCUC,0.18
13,UAACAGGGGGCCACAGCAGAAGCGUUCACGUGGCAGCCCCUGUCAGAAUCUGGAGAAUCUGCGAAUUCUGCAGUAAAUCUC,0.13
14,UAACAGGGGGCCACAGCAGAAGCGUUCACGUUGCAGCCCCUGUCAGAUUCUGGUGUGUCUGCGAAUUCUGCUGUAUAUCUC,0.15
15,UAACAGGGGGCCACAGCAGAAGCGUUCACGUUGCAGCCCCUGUCAGAUUCGGGUGAACCUGCGAAUUCCGCUGUAUAUCUC,0.14
16,UAACAGGGGGCCACAGCAGAAGCGUUCACGUAGCAGCCCCUGUCAGAUUCCGAUGUAGCUGCGAAUUCUGCUGUAUAUCAC,0.06
17,UAACAGGGGGCCACAGCAGAAGCGUUCACGUUGCAGCUCCAGUCAGAUUCUGGUGGAUCUGCGAAUUCUGCUGUAUAUCUC,0.13
